The subject of series [1] is T. brucei brucei parasites (Lister 427 strain). The series is described as follows: Dose response growth inhibition assay (resazurin, 72 h). Format: cell-based. The conditions noted are these: Trypanosoma brucei; T. b. brucei growth inhibition; read-out: Tbb pEC50 (converted). How it is done:
Greiner sterile black clear bottom 384-well assay plates were pre-dispensing with 200 nL of compound in each well, from master plates at 1 mM (100% DMSO) containing selection from the GSK compound collection. Controls of 0% response (control 1, 200 nL of 100%DMSO) and 100% response (control 2, 200 nL of 1 mM pentamidine) were included in each assay plate in columns 6 and 18, respectively. Plates containing 200 nL of 100% DMSO were included randomly in the assay, to assess quality through all process. […] After this period, 10 µL of 200 µM resazurin solution in prewarmed HMI-9 were added to each well, and plates were allowed to incubate 2 hours more prior fluorescence reading in a Wallac EnVision Multilabel Plate Reader (Perkin-Elmer). Raw fluorescent data from the Envision plate reader were uploaded into GSK HTS database (ActivityBase). Activity of each well was normalized as a percentage of inhibition per-plate basis using the following equation: [drawing 1]
For dose-response experiments, serial compound dilutions of selected hits from the primary campaign were plotted against compound concentration. Dose response master plates were prepared by 3-fold dilutions (starting with 10 mM DMSO stock solutions), providing 11 concentrations. From these master plates, 200 nL per well was stamped in final assay plates, including the same controls describe in the primary single shot assay. […]

Series [2] can be described thus: CLND kinetic solubility assay. Format: physicochemical. As to conditions: phosphate buffered saline, pH 7.4, aqueous buffer, kinetic from dmso stock; Measured; read-out: Aq Sol. How it is done:
5 µL of 10 mM DMSO stock solution was diluted to 100 µL with pH 7.4 phosphate buffered saline, equilibrated for 1 hour at room temperature, filtered through Millipore MultiscreenHTS-PCF filter plates (MSSL BPC). The filtrate was quantified by suitably calibrated flow injection Chemi-Luminescent Nitrogen Detection.

Series [3] addresses Cytochrome P450 (CYP450) (Homo sapiens, UniProt P08684). The series is described as follows: Cytochrome P450 inhibition profile. It counts as in vitro ADME. The conditions noted are these: Measured. As for the experimental part: The P450 inhibition profile of the inhibitors was determined as previously described.
Series [4] addresses T1, Human Serum Albumin (HSA) (Homo sapiens, UniProt P02768).
T1 construct: purchased Chiral Technologies, France
Briefly: Protein binding assay (HPLC stationary phase), HSA. As to conditions: Measured. It counts as in vitro ADME. How it is done: Chemically bonded Human Serum Albumin (HSA) and Alpha-1-acidglycoprotein HPLC stationary phases (Chiral Technologies, France) were used for measuring compounds' binding to plasma proteins, applying linear gradient elution up to 30% iso-propanol. The run time was 6 min, including the re-equilibration of the stationary phases with the 50 mM pH7.4 ammonium acetate buffer. The obtained gradient retention times were standardised using a calibration set of mixtures as described in the references. The average standard error of the assay depends on the binding strength and kinetics of the compounds.

The structures appear in SMILES notation. ≈ marks a conversion by molar mass, not a printed value. Read-outs that look alike come from different tables or passages of the source.

Regarding `COc1cc(/C=N/Nc2ncnc3c2cnn3C(C)C)ccc1O` [NEU-0001125], the EC50 in series [1] is 1000 nM.

On to `NC(=O)c1ccccc1Nc1nc(Nc2cc[nH]n2)ncc1Cl` [NEU-0001135], for which the EC50 in series [1] was 126 nM. Also, in series [2], the solubility kinetic at 1 h was 15 µM (≈ 4.95 µg/mL). Also, the IC50 in series [3] (CYP3A4, VG substrate, read-out: CYP3A4VG pXC50 (converted)) is 3160 nM; in series [3] (CYP3A4, VR substrate, read-out: CYP3A4VR pXC50 (converted)), 794 nM.

For the molecule `O=S1(=O)Cc2ccc(Nc3nccc(-c4ccc(F)cc4)n3)cc2C1` [NEU-0001142], the HSA % binding in series [4] was found to be 96.02%.

Take `CC(C)Nc1nc(Nc2ccc(S(N)(=O)=O)cc2)ncc1Cl` [NEU-0001173]: the solubility kinetic at 1 h in series [2] turned out to be 340 µM (≈ 116 µg/mL).

(Values after PMC4207660, “Identification and Characterization of Hundreds of Potent and Selective Inhibitors of Trypanosoma brucei Growth from a Kinase-Targeted Library Screening Campaign” (PLoS Neglected Tropical Diseases, 2014).)
